Certain results were filed several times, with different values. Only these are listed. The source may hold further records. Values given together appear to be repeats on other runs, samples or individuals.
Target: T1, CHOK1 cells engineered to overexpress human CCR2 (Homo sapiens, UniProt P41597)
T1 construct: expressed in transfected cells; host or cells: CHOK1 cells
Experiment: Antibody dependent cellular cytotoxicity (ADCC) reporter assay (Example 199)
Format: cell-based
Details: with anti-cotinine antibody SEQ ID NO: 11/12; CHOK1-human CCR2 target cells, Jurkat FcγRIIIa NFAT-luciferase reporter cells; 12-18 hours; read-out: ADCC Reporter Assay pEC50 (converted)
Procedure: An antibody dependent cellular cytoxicity reporter assay was conducted using the following four assay components: (i) ARM compound of Formula (I) targeting CCR2 (concentrations ranging from 1 pM to 10 μM) (ii) anti-cotinine antibody having a heavy chain sequence of SEQ ID NO: 11 and a light chain sequence of SEQ ID NO: 12 (rabbit variable region with human IgG1 Fc domain containing a DE mutation (S239D/1332E)) (concentrations ranging from 0.01 μg/mL to 200 μg/mL); (iii) target cells: CHOK1 cells engineered to overexpress either human CCR2 (typically 1000-20,000 cells per well) and (iv) reporter cells: Jurkat cells engineered to express FcγRIIIa with the reporter gene luciferase under the control of the NFAT promoter (typically 3000-75,000 cells per well). Reagents were combined in a final volume of 20 μL in a 384-well tissue culture treated plate. […] Luminescence signal was measured on a microplate reader and signal:background was calculated by dividing the signal of a test well by the signal obtained when no heterobivalent compound of Formula (I) was added. […]
ARMs compounds of Formula (I) of the invention were tested for ADCC activity in the above assay in or more experimental runs and the results are shown in Table 3 below. […] The pEC50 value is the negative log of the EC50 value, wherein the EC50 value is the half maximal effective concentration measured in molar (M). […]

Row | Structure (SMILES) | EC50
1 | CC(C)N(C)[C@@H]1CC[C@H](N2CC[C@H](Nc3ncnc4ccc(C(F)(F)F)cc34)C2=O)[C@H](NC(=O)[C@H]2CC[C@@H](CC(=O)CCCOC[C@H]3CC[C@H](COCCNC(=O)[C@H]4CC(=O)N(C)[C@@H]4c4cccnc4)CC3)CC2)C1 [Example 60] | 0.01 nM and 0.158 nM [one cell]
2 | CC(C)N(C)[C@@H]1CC[C@H](N2CC[C@H](Nc3ncnc4ccc(C(F)(F)F)cc34)C2=O)[C@H](NC(=O)[C@H]2CC[C@@H](NC(=O)CCCOC[C@H]3CC[C@@H](COCCNC(=O)[C@H]4CC(=O)N(C)[C@@H]4c4cccnc4)CC3)CC2)C1 [Example 61] | 0.01 nM and 0.2 nM [one cell]

— US20250136722A1, “CYTOTOXICITY TARGETING CHIMERAS” (GLAXOSMITHKLINE INTELLECTUAL PROPERTY DEVELOPMENT LIMITED, priority 2021, published 2025)
